The chains are these.
T1: SAUR19 (SMALL AUXIN UP RNA 19), yeast two-hybrid bait from pBTM116-SAUR19 (Arabidopsis thaliana) (UniProt Q9FJG1)
T1 sequence: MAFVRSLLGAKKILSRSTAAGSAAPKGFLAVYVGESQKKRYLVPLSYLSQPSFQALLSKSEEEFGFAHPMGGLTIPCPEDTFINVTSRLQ

T2: GFP-SAUR19 (Arabidopsis thaliana) (UniProt Q9FJG1)
T2 sequence: T1 sequence

T3: AHA2-YFP^N (Arabidopsis thaliana) (UniProt P19456)
T3 sequence: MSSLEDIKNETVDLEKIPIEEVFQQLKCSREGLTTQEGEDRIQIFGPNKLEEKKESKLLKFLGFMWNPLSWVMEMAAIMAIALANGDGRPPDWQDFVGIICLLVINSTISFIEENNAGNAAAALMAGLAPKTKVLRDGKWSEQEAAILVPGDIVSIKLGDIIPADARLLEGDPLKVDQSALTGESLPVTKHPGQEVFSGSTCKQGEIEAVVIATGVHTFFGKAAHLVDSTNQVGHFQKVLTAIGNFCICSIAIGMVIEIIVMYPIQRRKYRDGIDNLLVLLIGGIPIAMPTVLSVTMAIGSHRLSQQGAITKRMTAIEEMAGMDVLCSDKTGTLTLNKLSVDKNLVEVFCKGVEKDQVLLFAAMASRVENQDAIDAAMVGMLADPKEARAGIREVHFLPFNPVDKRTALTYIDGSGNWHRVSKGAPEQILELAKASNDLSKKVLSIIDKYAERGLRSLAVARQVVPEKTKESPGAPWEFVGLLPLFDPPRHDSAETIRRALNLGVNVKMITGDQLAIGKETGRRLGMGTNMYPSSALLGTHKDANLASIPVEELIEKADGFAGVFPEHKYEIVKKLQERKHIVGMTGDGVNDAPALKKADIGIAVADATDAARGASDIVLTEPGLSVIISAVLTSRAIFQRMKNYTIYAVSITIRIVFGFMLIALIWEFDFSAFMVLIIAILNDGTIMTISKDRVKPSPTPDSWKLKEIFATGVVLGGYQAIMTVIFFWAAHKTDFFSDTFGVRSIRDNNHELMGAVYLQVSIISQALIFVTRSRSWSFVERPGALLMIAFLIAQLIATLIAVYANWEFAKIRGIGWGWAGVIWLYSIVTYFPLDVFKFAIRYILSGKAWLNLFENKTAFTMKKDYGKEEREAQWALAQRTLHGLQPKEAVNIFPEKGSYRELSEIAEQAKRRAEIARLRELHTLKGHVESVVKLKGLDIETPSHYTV

B1: PP2C.D5, yeast two-hybrid prey from pACT2-PP2C.D5 (enzyme, UniProt Q5PNS9 1-400)
chain: MLSGLMNFLNACLWPRSDQQARSASDSGGRQEGLLWFRDSGQHVFGDFSMAVVQANSLLEDQSQLESGSLSSHDSGPFGTFVGVYDGHGGPETSRFINDHMFHHLKRFTAEQQCMSSEVIKKAFQATEEGFLSIVTNQFQTRPQIATVGSCCLVSVICDGKLYVANAGDSRAVLGQVMRVTGEAHATQLSAEHNASIESVRRELQALHPDHPDIVVLKHNVWRVKGIIQVSRSIGDVYLKRSEFNREPLYAKFRLRSPFSKPLLSAEPAITVHTLEPHDQFIICASDGLWEHMSNQEAVDIVQNHPRNGIAKRLVKVALQEAAKKREMRYSDLKKIDRGVRRHFHDDITVIVVFFDTNLVSRGSMLRGPAVSVRGAGVNLPHNTLAPCTTPTQAAAAGAS
B2: PP2C.D4, yeast two-hybrid prey from pACT2-PP2C.D4 (enzyme, UniProt Q94CL8 1-384)
chain: MVSTTFRRIVSPCWRPFGIGEDSSPGSDDTNGRLDGLLWYKDSGNHITGEFSMAVVQANNLLEDHSQLESGPISLHESGPEATFVGVYDGHGGPEAARFVNDRLFYNIKRYTSEQRGMSPDVITRGFVATEEEFLGLVQEQWKTKPQIASVGACCLVGIVCNGLLYVANAGDSRVVLGKVANPFKELKAVQLSTEHNASIESVREELRLLHPDDPNIVVLKHKVWRVKGIIQVSRSIGDAYLKRAEFNQEPLLPKFRVPERFEKPIMRAEPTITVHKIHPEDQFLIFASDGLWEHLSNQEAVDIVNSCPRNGVARKLVKAALQEAAKKREMRYSDLEKIERGIRRHFHDDITVIVVFLHATNFATRTPISVKGGGLLSAHNPVL
B3: PP2C.D6, yeast two-hybrid prey from pACT2-PP2C.D6 (enzyme, UniProt Q9SD12 1-379)
chain: MLSTLMKLLSACLWPSSSSGKSSDSTGKQDGLLWYKDFGQHLVGEFSMAVVQANNLLEDQSQVESGPLSTLDSGPYGTFIGIYDGHGGPETSRFVNDHLFQHLKRFAAEQASMSVDVIKKAYEATEEGFLGVVTKQWPTKPQIAAVGSCCLVGVICGGMLYIANVGDSRAVLGRAMKATGEVIALQLSAEHNVSIESVRQEMHSLHPDDSHIVMLKHNVWRVKGLIQISRSIGDVYLKKAEFNKEPLYTKYRIREPFKRPILSGEPTITEHEIQPQDKFLIFASDGLWEQMSNQEAVDIVQNHPRNGIARRLVKMALQEAAKKREMRYSDLKKIERGVRRHFHDDITVVIIFLDTNQVSSVKGPPLSIRGGGMTFPKKI
B4: PP2C.D8, yeast two-hybrid prey from pACT2-PP2C.D8 (enzyme, UniProt O81760 1-380)
chain: MLRALARPLERCLGSRASGDGLLWQSELRPHAGGDYSIAVVQANSRLEDQSQVFTSSSATYVGVYDGHGGPEASRFVNRHLFPYMHKFAREHGGLSVDVIKKAFKETEEEFCGMVKRSLPMKPQMATVGSCCLVGAISNDTLYVANLGDSRAVLGSVVSGVDSNKGAVAERLSTDHNVAVEEVRKEVKALNPDDSQIVLYTRGVWRIKGIIQVSRSIGDVYLKKPEYYRDPIFQRHGNPIPLRRPAMTAEPSIIVRKLKPQDLFLIFASDGLWEHLSDETAVEIVLKHPRTGIARRLVRAALEEAAKKREMRYGDIKKIAKGIRRHFHDDISVIVVYLDQNKTSSSNSKLVKQGGITAPPDIYSLHSDEAEQRRLLNVLY
B5: PP2C.D9, yeast two-hybrid prey from pACT2-PP2C.D9 (enzyme, UniProt Q84JD5 1-393)
chain: MFSWLARMALFCLRPMRRYGRMNRDDDDDDDHDGDSSSSGDSLLWSRELERHSFGDFSIAVVQANEVIEDHSQVETGNGAVFVGVYDGHGGPEASRYISDHLFSHLMRVSRERSCISEEALRAAFSATEEGFLTLVRRTCGLKPLIAAVGSCCLVGVIWKGTLLIANVGDSRAVLGSMGSNNNRSNKIVAEQLTSDHNAALEEVRQELRSLHPDDSHIVVLKHGVWRIKGIIQVSRSIGDAYLKRPEFSLDPSFPRFHLAEELQRPVLSAEPCVYTRVLQTSDKFVIFASDGLWEQMTNQQAVEIVNKHPRPGIARRLVRRAITIAAKKREMNYDDLKKVERGVRRFFHDDITVVVIFIDNELLMVEKATVPELSIKGFSHTVGPSKFSIFLS
B6: PP2C.D3, yeast two-hybrid prey from pACT2-PP2C.D3 (enzyme, UniProt Q9LHJ9 1-385)
chain: MVSSATILRMVAPCWRRPSVKGDHSTRDANGRCDGLLWYKDSGNHVAGEFSMSVIQANNLLEDHSKLESGPVSMFDSGPQATFVGVYDGHGGPEAARFVNKHLFDNIRKFTSENHGMSANVITKAFLATEEDFLSLVRRQWQIKPQIASVGACCLVGIICSGLLYIANAGDSRVVLGRLEKAFKIVKAVQLSSEHNASLESVREELRSLHPNDPQIVVLKHKVWRVKGIIQVSRSIGDAYLKKAEFNREPLLAKFRVPEVFHKPILRAEPAITVHKIHPEDQFLIFASDGLWEHLSNQEAVDIVNTCPRNGIARKLIKTALREAAKKREMRYSDLKKIDRGVRRHFHDDITVIVVFLDSHLVSRSTSRRPLLSISGGGDLAGPST
B7: PP2C.D5-HA (enzyme, UniProt Q5PNS9 1-400)
chain: B1 chain
B8: PP2C.D6-HA (enzyme, UniProt Q9SD12 21-379)
chain: KSSDSTGKQDGLLWYKDFGQHLVGEFSMAVVQANNLLEDQSQVESGPLSTLDSGPYGTFIGIYDGHGGPETSRFVNDHLFQHLKRFAAEQASMSVDVIKKAYEATEEGFLGVVTKQWPTKPQIAAVGSCCLVGVICGGMLYIANVGDSRAVLGRAMKATGEVIALQLSAEHNVSIESVRQEMHSLHPDDSHIVMLKHNVWRVKGLIQISRSIGDVYLKKAEFNKEPLYTKYRIREPFKRPILSGEPTITEHEIQPQDKFLIFASDGLWEQMSNQEAVDIVQNHPRNGIARRLVKMALQEAAKKREMRYSDLKKIERGVRRHFHDDITVVIIFLDTNQVSSVKGPPLSIRGGGMTFPKKI
B9: PP2C.D5-YFP^C (enzyme, UniProt Q5PNS9 1-400)
chain: B1 chain
B10: PP2C.D2-YFP^C (enzyme, UniProt Q0V7V2 1-384)
chain: MSGSLMNLFSLCFKPFGHVCDNSEAGSGGGGGVSGGTGGEGKDGLLWFRDLGKYCGGDFSMAVIQANQVLEDQSQVESGNFGTFVGVYDGHGGPEAARYVCDHLFNHFREISAETQGVVTRETIERAFHATEEGFASIVSELWQEIPNLATVGTCCLVGVIYQNTLFVASLGDSRVVLGKKGNCGGLSAIQLSTEHNANNEDIRWELKDLHPDDPQIVVFRHGVWRVKGIIQVSRSIGDMYMKRPEFNKEPISQKFRIAEPMKRPLMSATPTILSHPLHPNDSFLIFASDGLWEHLTNEKAVEIVHNHPRAGSAKRLIKAALHEAARKREMRYSDLRKIDKKVRRHFHDDITVIVVFLNHDLISRGHINSTQDTTVSIRSALEH
B11: PP2C.D6-YFP^C (enzyme, UniProt Q9SD12 21-379)
chain: B8 chain

The source of these data is article PMC6016943.

No constants are given. Whether binding was seen depends on the method and setting. For some assays here: Binding seen in cells or lysates may run through a third protein. Some binding calls cover weakened binding; strength is not graded here. For some assays here: Tags and fused reporters may be left off the sequences shown.

The first test has as its target T1, SAUR19 (SMALL AUXIN UP RNA 19), yeast two-hybrid bait from pBTM116-SAUR19 (Arabidopsis thaliana). Briefly: two-hybrid; lexA-based yeast two-hybrid; bait pBTM116-SAUR19, prey pACT2-PP2C.D, strain L40ccU3; selection media, room temperature, 3 to 6 days.
For the molecule B1, the binding result is “binds”.
For the molecule B2, the binding result is recorded as “binds”.
B3: the binding entry is “binds”.
Turning to B4, the binding result is “binds”.
Still for that read-out and setting: the entry for B5 is “no binding”; for B6 it is “binds”.

A further test concerns the target T2, GFP-SAUR19 (Arabidopsis thaliana). The experiment in a line: co-IP; solubilized microsomal proteins (300-400 ug) of 6-day-old etiolated Arabidopsis seedlings co-expressing PP2C.D-HA and GFP-SAUR19; precipitated with anti-GFP antibody (pre-immune serum as control), blots with anti-HA and anti-GFP.
As for B7, the binding entry is listed as “binds”.
B8: the binding entry is reported as “no binding”.

The next test has as its target T3, AHA2-YFP^N (Arabidopsis thaliana). Briefly: split reporter; BiFC with split YFP, transient co-expression in Nicotiana benthamiana leaf epidermal cells, confocal microscopy three days after infiltration.
As for B9, the binding entry was “binds”.
Regarding B10, the binding entry is on record as “binds”.
As to B11, the binding result is “binds”.
